Measurements from the supplement of paper PMC10126150.
Values marked as one replicate rest on one cluster of the flow cell; about a third of the high ones do not repeat.
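Further: ATP exposure 15 min at 22 °C before imaging.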

These sequences were tested on ATP (assay: switch fluorescence ratio, 500 uM ATP over buffer (Cy3 cluster intensity, sum of 5 cycles each) (fold (ratio)); higher = stronger signal-on switching upon ATP binding; sequences stand for … in TCGTCGGCAGCGTCAGATGTGTATAAGAGACAGTTTTTTTTTTTTTTTTTTTTTTTTT…TC). Details: aptamer strand: ATP DNA aptamer (quencher-CACCTGGGGGAGTATTGCGGAGGAAGG + anchor), 100 nM annealed; ATP concentration: 500 uM; one replicate.
How it was run: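 For every switch-domain sequence, the fluorescence ratio is the mean of per-cluster values, each being summed target-cycle Cy3 intensity over summed buffer-cycle Cy3 intensity. Clusters outside 100-1000 RFU were excluded. On a modified Illumina MiSeq flow-cell, the Cy3-labelled switching-strand clusters were annealed to 100 nM quencher-labelled ATP aptamer, imaged in selection buffer and then after 15 min with 500 uM ATP at 22 °C. Five such cycles were run, with NaOH stripping and re-annealing between them.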
GTGTAAGGGA gave a switch fluorescence ratio of 0.996.
With GTGTAAGGTG the switch fluorescence ratio was 1.19.
Sequence GTGTACATTA has a switch fluorescence ratio of 1.01.
Sequence GTGTACGGCA has a switch fluorescence ratio of 1.07.
GTGTACGTTT showed a switch fluorescence ratio of 0.973.
In the case of GTGTAGAATC, the switch fluorescence ratio is reported as 1.02.
Work on GTGTATAATC yielded a switch fluorescence ratio of 0.985.
GTGTATCGTG showed a switch fluorescence ratio of 0.983.
GTGTATTTGG showed a switch fluorescence ratio of 0.991.
GTGTCGGATG was tested, and the switch fluorescence ratio was 1.
GTGTGAGAAT gave a switch fluorescence ratio of 1.04.
GTGTGAGACA gave a switch fluorescence ratio of 1.01.
For GTGTGATA, the switch fluorescence ratio was 1.04.
GTGTGCACAC was tested, and the switch fluorescence ratio was 1.01.
GTGTGCCGTC was tested, and the switch fluorescence ratio was 1.04.
With GTGTGCGAAA the switch fluorescence ratio was 0.982.
GTGTGCGGGC was tested, and the switch fluorescence ratio was 1.14.
Work on GTGTGGAATT yielded a switch fluorescence ratio of 0.981.
For GTGTGGACCA, the switch fluorescence ratio was 1.04.
For GTGTGGCGCC, the switch fluorescence ratio was 0.98.
GTGTGGGGTG gave a switch fluorescence ratio of 1.03.
GTGTGTACTG showed a switch fluorescence ratio of 0.969.
With GTGTGTCATT the switch fluorescence ratio was 1.01.
Work on GTGTTAAGAG yielded a switch fluorescence ratio of 0.979.
Sequence GTGTTACTCC has a switch fluorescence ratio of 1.36.
GTGTTACTCG showed a switch fluorescence ratio of 1.05.
Work on GTGTTCATAC yielded a switch fluorescence ratio of 4.29.
Sequence GTGTTCATTA has a switch fluorescence ratio of 0.991.
Sequence GTGTTTG has a switch fluorescence ratio of 0.961.
Sequence GTTAAACCCC has a switch fluorescence ratio of 1.25.
GTTAAACGTA was tested, and the switch fluorescence ratio was 1.1.
For GTTAAACTAA, the switch fluorescence ratio was 1.01.
GTTAACGGTG gave a switch fluorescence ratio of 1.05.
In the case of GTTAACTTAG, the switch fluorescence ratio is reported as 1.04.
GTTAAGAG was tested, and the switch fluorescence ratio was 0.976.
Sequence GTTAATTATG has a switch fluorescence ratio of 0.985.
In the case of GTTACAAAAT, the switch fluorescence ratio is reported as 0.97.
For GTTACCGGCG, the switch fluorescence ratio was 0.995.
GTTACCTTCG was tested, and the switch fluorescence ratio was 2.07.
Work on GTTACGCGCG yielded a switch fluorescence ratio of 0.98.
Sequence GTTACTGCCA has a switch fluorescence ratio of 1.16.
With GTTAGAAACT the switch fluorescence ratio was 1.04.
Sequence GTTAGACACT has a switch fluorescence ratio of 0.992.
With GTTAGATTCG the switch fluorescence ratio was 1.02.
Work on GTTAGCCACA yielded a switch fluorescence ratio of 0.994.
Sequence GTTAGGCGCT has a switch fluorescence ratio of 1.06.
Sequence GTTATAAAAG has a switch fluorescence ratio of 0.982.
GTTATGACGA was tested, and the switch fluorescence ratio was 1.02.
GTTATGACGT was tested, and the switch fluorescence ratio was 0.988.
With GTTATGCAGC the switch fluorescence ratio was 1.02.
GTTATGGATG gave a switch fluorescence ratio of 0.967.
In the case of GTTATTATAA, the switch fluorescence ratio is reported as 1.
In the case of GTTATTATCC, the switch fluorescence ratio is reported as 0.989.
GTTATTTCT showed a switch fluorescence ratio of 0.99.
With GTTATTTCTT the switch fluorescence ratio was 1.02.
GTTATTTTTC showed a switch fluorescence ratio of 0.957.
In the case of GTTATTTTTG, the switch fluorescence ratio is reported as 1.01.
Work on GTTCAAATTT yielded a switch fluorescence ratio of 0.996.
GTTCACGCCA gave a switch fluorescence ratio of 1.22.
GTTCAGAGCC gave a switch fluorescence ratio of 1.
In the case of GTTCAGGTTG, the switch fluorescence ratio is reported as 1.07.
GTTCATCTGC gave a switch fluorescence ratio of 1.1.
Work on GTTCATGTAA yielded a switch fluorescence ratio of 0.972.
Work on GTTCCAAGGG yielded a switch fluorescence ratio of 1.02.
In the case of GTTCCGTCGC, the switch fluorescence ratio is reported as 1.4.
For GTTCCTAGCT, the switch fluorescence ratio was 1.04.
With GTTCCTGGTC the switch fluorescence ratio was 0.945.
GTTCGTCCGC showed a switch fluorescence ratio of 3.27.
GTTCTAGAGC was tested, and the switch fluorescence ratio was 1.07.
Work on GTTCTCCACA yielded a switch fluorescence ratio of 1.01.
GTTCTCCTGT showed a switch fluorescence ratio of 1.05.
For GTTCTCGGCC, the switch fluorescence ratio was 1.01.
GTTCTCGGGG was tested, and the switch fluorescence ratio was 0.984.
Work on GTTCTCGTCT yielded a switch fluorescence ratio of 1.04.
Sequence GTTCTGAAGA has a switch fluorescence ratio of 1.03.
GTTCTGGAAT gave a switch fluorescence ratio of 1.1.
